# Experimental data taken from the supplement of paper PMC8728848.
# The list shows a part of the results.
# Tests used:
# Experiment in all cases: glycan array binding signal (z-score within array); higher = stronger binding
# Conditions in all cases: glycan notation: IUPAC condensed, linker removed
# [1] = molecular target: Fuc(a1-2)Gal
# How it was run: (§1)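 Glycan array binding is given as a within-array Z-score, which can be read as non-binding when negative. The arrays, 3228 of them, came from the Consortium for Functional Glycomics database and were retained only where the protein sequence was available. Z-scores were averaged across arrays of the same protein sequence at different concentrations or buffers and across linkers.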
# [2] = molecular target: Fuc(a1-2)Gal(b1-3)GalNAc
# How it was run: as §1
# [3] = molecular target: Fuc(a1-2)Gal(b1-3)GalNAc(a1-3)[Fuc(a1-2)]Gal(b1-4)Glc
# How it was run: as §1
# [4] = molecular target: Fuc(a1-2)Gal(b1-3)GalNAc(a1-3)[Fuc(a1-2)]Gal(b1-4)GlcNAc
# How it was run: as §1
# [5] = molecular target: Fuc(a1-2)Gal(b1-3)GalNAc(b1-3)Gal
# How it was run: as §1
# [6] = molecular target: Fuc(a1-2)Gal(b1-3)GalNAc(b1-3)Gal(a1-4)Gal(b1-4)Glc
# How it was run: as §1
# [7] = molecular target: Fuc(a1-2)Gal(b1-3)GalNAc(b1-3)Gal(b1-4)Glc
# How it was run: as §1
# [8] = molecular target: Fuc(a1-2)Gal(b1-3)GalNAc(b1-4)[Neu5Ac(a2-3)]Gal(b1-4)Glc
# How it was run: as §1
# [9] = molecular target: Fuc(a1-2)Gal(b1-3)GlcNAc
# How it was run: as §1
# [10] = molecular target: Fuc(a1-2)Gal(b1-3)GlcNAc(b1-2)Man(a1-3)[Fuc(a1-2)Gal(b1-3)GlcNAc(b1-2)Man(a1-6)]Man(b1-4)GlcNAc(b1-4)GlcNAc
# How it was run: as §1
# [11] = molecular target: Fuc(a1-2)Gal(b1-3)GlcNAc(b1-2)Man(a1-3)[Fuc(a1-2)Gal(b1-3)GlcNAc(b1-2)Man(a1-6)]Man(b1-4)GlcNAc(b1-4)[Fuc(a1-6)]GlcNAc
# How it was run: as §1
# [12] = molecular target: Fuc(a1-2)Gal(b1-3)GlcNAc(b1-3)Gal(b1-4)Glc
# How it was run: as §1
# [13] = molecular target: Fuc(a1-2)Gal(b1-3)GlcNAc(b1-3)GalNAc
# How it was run: as §1
# [14] = molecular target: Fuc(a1-2)Gal(b1-3)GlcNAc(b1-3)[Fuc(a1-2)Gal(b1-3)GlcNAc(b1-6)]GalNAc
# How it was run: as §1
# [15] = molecular target: Fuc(a1-2)Gal(b1-3)GlcNAc(b1-3)[Gal(b1-4)GlcNAc(b1-6)]Gal(b1-4)Glc
# How it was run: as §1
# [16] = molecular target: Fuc(a1-2)Gal(b1-3)GlcNAc(b1-3)[Neu5Ac(a2-6)Gal(b1-4)GlcNAc(b1-6)]Gal(b1-4)Glc
# How it was run: as §1
# [17] = molecular target: Fuc(a1-2)Gal(b1-3)GlcNAc6S
# How it was run: as §1
# [18] = molecular target: Fuc(a1-2)Gal(b1-3)[Fuc(a1-4)]GlcNAc
# How it was run: as §1
# [19] = molecular target: Fuc(a1-2)Gal(b1-3)[Fuc(a1-4)]GlcNAc(b1-2)Man(a1-3)[Fuc(a1-2)Gal(b1-3)[Fuc(a1-4)]GlcNAc(b1-2)Man(a1-3)]Man(b1-4)GlcNAc(b1-4)GlcNAc
# How it was run: as §1
# [20] = molecular target: Fuc(a1-2)Gal(b1-3)[Fuc(a1-4)]GlcNAc(b1-2)Man(a1-3)[Fuc(a1-2)Gal(b1-3)[Fuc(a1-4)]GlcNAc(b1-2)Man(a1-6)]Man(b1-4)GlcNAc(b1-4)[Fuc(a1-6)]GlcNAc(b1-4)[Fuc(a1-6)]GlcNAc
# How it was run: as §1
# [21] = molecular target: Fuc(a1-2)Gal(b1-3)[Fuc(a1-4)]GlcNAc(b1-3)[Fuc(a1-3)[Gal(b1-4)]GlcNAc(b1-6)]Gal(b1-4)Glc
# How it was run: as §1
# [22] = molecular target: Fuc(a1-2)Gal(b1-3)[Fuc(a1-4)]GlcNAc(b1-3)[Gal(b1-4)GlcNAc(b1-6)]Gal(b1-4)Glc
# How it was run: as §1
# [23] = molecular target: Fuc(a1-2)Gal(b1-4)Fuc(a1-3)]GlcNAc(b1-2)Man(a1-3)[Fuc(a1-2)Gal(b1-4)[Fuc(a1-3)]GlcNAc(b1-2)Man(a1-6)]Man(b1-4)GlcNAc(b1-4)GlcNAc
# How it was run: as §1
# [24] = molecular target: Fuc(a1-2)Gal(b1-4)Glc
# How it was run: as §1
# [25] = molecular target: Fuc(a1-2)Gal(b1-4)Glc6S
# How it was run: as §1
# [26] = molecular target: Fuc(a1-2)Gal(b1-4)GlcNAc
# How it was run: as §1
# [27] = molecular target: Fuc(a1-2)Gal(b1-4)GlcNAc(b1-2)Man
# How it was run: as §1
# [28] = molecular target: Fuc(a1-2)Gal(b1-4)GlcNAc(b1-2)Man(a1-3)[Fuc(a1-2)Gal(b1-4)GlcNAc(b1-2)Man(a1-6)]Man(b1-4)GlcNAc(b1-4)GlcNAc
# How it was run: as §1
# [29] = molecular target: Fuc(a1-2)Gal(b1-4)GlcNAc(b1-2)Man(a1-3)[Fuc(a1-2)Gal(b1-4)GlcNAc(b1-2)Man(a1-6)]Man(b1-4)GlcNAc(b1-4)[Fuc(a1-6)]GlcNAc
# How it was run: as §1
# [30] = molecular target: Fuc(a1-2)Gal(b1-4)GlcNAc(b1-2)[Fuc(a1-2)Gal(b1-4)GlcNAc(b1-4)]Man(a1-3)[Fuc(a1-2)Gal(b1-4)GlcNAc(b1-2)Man(a1-6)]Man(b1-4)GlcNAc(b1-4)GlcNAc
# How it was run: as §1
binder,measurement,setting,value
EEA (Euonymus europaeus) (protein) MASTIIATGPTYRVYCRAAPNYNMIVGKGVAFLAPIDETNELQYWYKDDTYSYIKDEAGLPAFSLVNKATGLTLKHSNHHPVPVKLVTYNPNVVDESVLWSQADDRGDGYSAIRSLTNPASHLEAAPLNDWSYNGAIIMGGVWIDAYNQQWKIEPHTG,glycan array binding signal (z-score),[1],-0.14
same,glycan array binding signal (z-score),[2],0.657
same,glycan array binding signal (z-score),[3],-0.22
same,glycan array binding signal (z-score),[4],-0.193
same,glycan array binding signal (z-score),[5],-0.272
same,glycan array binding signal (z-score),[6],-0.238
same,glycan array binding signal (z-score),[7],1.55
same,glycan array binding signal (z-score),[8],-0.255
same,glycan array binding signal (z-score),[9],0.913
same,glycan array binding signal (z-score),[10],0.509
same,glycan array binding signal (z-score),[11],-0.219
same,glycan array binding signal (z-score),[12],1.08
same,glycan array binding signal (z-score),[13],-0.234
same,glycan array binding signal (z-score),[14],-0.124
same,glycan array binding signal (z-score),[15],-0.054
same,glycan array binding signal (z-score),[16],0.158
same,glycan array binding signal (z-score),[17],-0.217
same,glycan array binding signal (z-score),[18],-0.173
same,glycan array binding signal (z-score),[19],-0.1
same,glycan array binding signal (z-score),[20],-0.18
same,glycan array binding signal (z-score),[21],-0.242
same,glycan array binding signal (z-score),[22],-0.191
same,glycan array binding signal (z-score),[23],-0.109
same,glycan array binding signal (z-score),[24],-0.13
same,glycan array binding signal (z-score),[25],-0.08
same,glycan array binding signal (z-score),[26],0.32
same,glycan array binding signal (z-score),[27],-0.244
same,glycan array binding signal (z-score),[28],0.161
same,glycan array binding signal (z-score),[29],0.07
same,glycan array binding signal (z-score),[30],0.14
